In all, about 110,000 compounds were measured (“z-score”: median about -0.1, highest 2% from about 2 on). The list shows a part of the results.
target: Metabotropic glutamate receptor 8 (Rattus norvegicus) (UniProt P70579); test: rat mGluR8 modulators via GIRK flux, primary screen, cell-based, thallium flux, HTS (AID 488969); details: HEK293 rat mGluR8, GIRK (G protein-gated inwardly rectifying potassium channel) thallium flux, FluoZin2; at 10 µM; stronger effect = higher value; submaximal glutamate (EC20) added with thallium
UniProt P70579, sequence (P70579 whole entry, looked up): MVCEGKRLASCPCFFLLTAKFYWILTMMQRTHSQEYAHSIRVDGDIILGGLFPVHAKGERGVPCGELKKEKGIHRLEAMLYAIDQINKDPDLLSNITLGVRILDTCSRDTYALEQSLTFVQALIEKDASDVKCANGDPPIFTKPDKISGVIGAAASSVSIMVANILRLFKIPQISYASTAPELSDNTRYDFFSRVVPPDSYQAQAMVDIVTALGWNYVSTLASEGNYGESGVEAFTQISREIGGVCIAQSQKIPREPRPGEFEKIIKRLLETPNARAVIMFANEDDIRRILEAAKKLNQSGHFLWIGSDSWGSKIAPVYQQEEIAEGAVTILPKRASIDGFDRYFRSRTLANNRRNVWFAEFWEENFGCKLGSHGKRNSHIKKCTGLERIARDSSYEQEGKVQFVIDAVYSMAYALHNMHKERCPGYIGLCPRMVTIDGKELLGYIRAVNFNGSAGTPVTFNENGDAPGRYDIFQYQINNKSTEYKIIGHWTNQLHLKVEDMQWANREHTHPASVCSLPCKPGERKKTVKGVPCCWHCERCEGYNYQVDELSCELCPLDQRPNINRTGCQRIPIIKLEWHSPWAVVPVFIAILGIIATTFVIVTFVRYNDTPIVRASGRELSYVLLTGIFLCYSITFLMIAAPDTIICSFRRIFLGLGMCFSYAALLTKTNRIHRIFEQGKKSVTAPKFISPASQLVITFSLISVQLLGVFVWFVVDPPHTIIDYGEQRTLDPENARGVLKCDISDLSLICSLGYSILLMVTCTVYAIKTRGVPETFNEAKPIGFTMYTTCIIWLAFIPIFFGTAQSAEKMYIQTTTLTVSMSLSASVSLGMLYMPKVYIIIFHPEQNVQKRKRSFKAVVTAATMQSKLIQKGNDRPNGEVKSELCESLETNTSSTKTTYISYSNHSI

| SMILES | z-score |
| --- | --- |
| CCOC(=O)N1CCN(C(=O)CS(=O)(=O)Cc2nc(-c3ccccc3C)oc2C)CC1 | 0.176 |
| CCOC(=O)C1CCCN(c2cc(C)nc3cc(-c4ccc(Cl)cc4)nn23)C1 (centres undefined) | -0.161 |
| Cc1nnc(NC(=O)CCC(=O)N2CCC(C)CC2)s1 | -0.154 |
| O=c1[nH]c2cc3c(cc2cc1C(c1nnnn1C1CCCCC1)N1CCSCC1)OCCO3 (centres undefined) | 0.278 |
| N#Cc1c(N)nc(SC2CCCCC2=O)c(C#N)c1-c1ccco1 (centres undefined) | -0.131 |
| CCOc1ccccc1-c1nc(-c2ccc(NC(=O)c3ccc(Br)o3)cc2)no1 | -0.277 |
| Cc1csc(NC(=O)CSCC(=O)Nc2ccccc2)n1 | 0.462 |
| O=c1[nH]nc2c3ccccc3cnn12 | -0.408 |
| C=CCN(Cc1cccc(OC)c1OC)S(=O)(=O)N(C)C | -0.164 |
| Cc1nn(CCc2n[nH]c(=S)n2C)c(C)c1Br | -0.181 |
| O=C(Nc1cccc(-c2nc3ccccc3o2)c1)c1ccc(N2C(=O)C3C4C=CC(C4)C3C2=O)cc1 (centres undefined) | -0.233 |
| Cc1sc(NC(=O)CSc2nnnn2C2CCCCC2)c(C#N)c1C | -0.147 |
| O=c1c(Cc2ccc(F)cc2)c(O)ccn1Cc1ccc(Cl)cc1Cl | 0.163 |
| Cc1c(NC(=S)NC(=O)COc2ccccc2)c(=O)n(-c2ccccc2)n1C | -0.15 |
| COc1ccc(N2CCN(C(=S)Nc3cc(C)ccc3C)CC2)cc1 | -0.671 |
| CC1Oc2ccccc2N(CC(=O)NCC2CCCO2)C1=O (centres undefined) | -0.413 |
| COc1cccc(C(=O)c2c[nH]c(C(=O)NCc3cccs3)c2)c1 | -0.05 |
| Cc1ccc(C(=O)NC2CCCc3ccccc32)o1 (centres undefined) | -0.375 |
| COc1cc(C(=O)Oc2c(CN3CCOCC3)cc(Cl)c3cccnc23)cc(OC)c1OC | -0.766 |
| COCC(C)NC(=O)CSc1nc2ccccc2n1CCc1ccccc1 (centres undefined) | -0.151 |
| C=CCNC(=O)CSc1nc2sc(C)c(C)c2c(=O)[nH]1 | -0.119 |
| COc1ccc2c(c1)-c1nc(/N=C/c3cccc(OC)c3O)sc1CC2 | -0.372 |
| COc1ccccc1CNC(=O)CSc1ccc(Br)cc1 | 0.558 |
| COc1ccc(/C=C2\CCc3ccccc3C2=O)cc1Cn1nc(C)c(Br)c1C | -0.109 |
| O=C(c1ccc(Cl)cc1)C1CCN(C(=O)NC2CCCCC2)CC1 | -0.251 |
| CC1CCC(NC(=O)CN2C(=O)C3CCCN3c3ncc(Cl)cc32)CC1 (centres undefined) | -1.48 |
| CCOc1ccc2noc3c2c1C(=O)c1ccccc1-3 | -2.43 |

| SMILES | z-score |
| --- | --- |
| O=C(O)/C=C/C(=O)N(Cc1ccccc1)Cc1ccco1 | -0.334 |
| COc1cccc(Nc2nc3ccccc3nc2NS(=O)(=O)c2cccs2)c1 | -0.314 |
| Cc1c(Cl)cccc1-c1ccc(/C=N/n2cnnc2)o1 | -0.29 |
| O=C(Cn1nnc(-c2ccc(S(=O)(=O)N3CCCC3)cc2)n1)Nc1ccccc1-n1cccc1 | -0.35 |
| O=C(Nc1ccc(S(=O)(=O)N2CCCC2)cc1)c1ccc(CN2CCOCC2)cc1 | -0.076 |
| COc1ccc(C2C3CCCCC3(O)CCN2C(=O)c2cccs2)cc1 (centres undefined) | 0.695 |
| CCOC(=O)c1nnn(-c2nonc2N)c1CN1CCCCCC1 | 0.089 |
| CCNC(=O)NC(=O)C(C)On1nnc2ccc(S(=O)(=O)N(CC)CC)cc21 (centres undefined) | -0.438 |
| CCCN1CCN(CCCNC(=O)C2CCCN(c3nc4ccc(OCC)cc4s3)C2)CC1 (centres undefined) | -0.2 |
| COc1ccc(C(C)=O)cc1COC(=O)c1cc(C)oc1C | -0.947 |
| O=C(Nc1ccc2c(c1)OCCO2)N1CCN(c2ccccc2)CC1 | 0.0611 |
| C/C=C/C(=O)OCC(=O)Nc1cc(-c2cc(C)c(C)cc2C)nn1-c1ccccc1 | 0.753 |
| CCC(=O)NC(=S)Nc1ccc(OC)cc1OC | -0.0781 |
| O=C(CSc1nnnn1C1CCCC1)Nc1ccc2c(c1)OCCO2 | -0.282 |
| COc1ccc(NS(=O)(=O)c2ccc3nc(COc4ccc(Cl)c(C)c4)[nH]c3c2)cc1 | -0.0225 |
| Cc1cc(C)nc(NC(=O)c2cccc([N+](=O)[O-])c2)c1 | 0.127 |
| CCN(CC)S(=O)(=O)c1cccc(N=NC2=C(O)CCCC2=O)c1 | 0.417 |
| COc1ccc(C(=O)Oc2cc3c4c(c2)C(C)=CC(C)(C)N4C(=O)C3=O)cc1OC | -0.442 |
| CCOC(=O)c1c(NC(=O)Cn2cnc([N+](=O)[O-])n2)sc2c1CCC(C)C2 (centres undefined) | -0.152 |
| COc1ccc(Cl)cc1Nc1nc(-c2sc(NC(=O)CC(C)C)nc2C)cs1 | -0.277 |
| O=C(NCCN1CCOCC1)Nc1ccc(Cl)cc1Cl | -0.395 |
| CC12CCC(C(=O)Nc3nccs3)(OC1=O)C2(C)C (centres undefined) | -0.842 |
| CCOC(=O)c1oc2ccccc2c1N | -0.0615 |
| Cc1ccc(S(=O)(=O)N2CCN(C(=O)c3cc(=O)[nH]c4ccccc34)CC2)c(C)c1 | -0.79 |
| COc1ccc(-c2nc(-c3cccc(C)c3)no2)cc1OC | 1.7 |
| O=C(NCc1ccco1)c1cc2cc3ccc(Cl)cc3nc2o1 | -0.249 |
| CC(C)CNS(=O)(=O)c1ccc(OCC(=O)Nc2ccc3c(c2)OCO3)c(Cl)c1 | -0.19 |

Reference: PubChem BioAssay AID488969 (Vanderbilt High Throughput Screening Facility, 2010)
